Reference: the supplement of paper PMC4604168 (melanoma cell lines)
The list shows a part of the results. Repeats are few or missing, and single values can be far off.

Tests used:
Experiment in all cases: cell count relative to DMSO control; melanoma cells; higher = more viable cells
Details in all cases: library dose: low library concentration; 72 h
COLO792 = test system: COLO792
COLO800 = test system: COLO800
COLO829 = test system: COLO829
G361 = test system: G361
IPC-298 = test system: IPC-298
IST-MEL1 = test system: IST-MEL1
LB2518-MEL = test system: LB2518-MEL
LOXIMVI = test system: LOXIMVI
MEL-HO = test system: MEL-HO
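Also: cell number obtained by counting DAPI-stained nuclei in high-throughput microscope images with image analysis software, screen run in 1,536-well plates.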

Row | SMILES | cell count (COLO792) [%] | cell count (COLO800) [%] | cell count (COLO829) [%] | cell count (G361) [%] | cell count (IPC-298) [%] | cell count (IST-MEL1) [%] | cell count (LB2518-MEL) [%] | cell count (LOXIMVI) [%] | cell count (MEL-HO) [%]
1 | O=C(/C=C/c1cccnc1)NCCCCC1CCN(C(=O)c2ccccc2)CC1 + CCCCCCCCCCCC1=C(O)C(=O)C=C(O)C1=O [Embelin] (first compound 0.01 µM, partner dose 1.2 µM) | 59.9 | 31 | 95.2 | 22.9 | 53.2 | 78.9 | 63.5 | 75.4 | 70.4
2 | Cc1ccc(Nc2nccc(N(C)c3ccc4c(C)n(C)nc4c3)n2)cc1S(N)(=O)=O [Pazopanib] + COc1ccc(-c2ccc3c(N4CCOCC4)nc(N4C[C@@H](C)O[C@@H](C)C4)nc3n2)cc1CO [KU0063794] (first compound 0.4 µM, partner dose 0.02 µM) | 113 | 106 | 107 | 87.4 | 85.3 | 99.8 | 92.2 | 91.6 | 94.1
3 | Cc1ccc(Nc2nccc(N(C)c3ccc4c(C)n(C)nc4c3)n2)cc1S(N)(=O)=O [Pazopanib] + CCCCCCCCCCCC1=C(O)C(=O)C=C(O)C1=O [Embelin] (first compound 0.4 µM, partner dose 1.2 µM) | 119 | 158 | 76.1 | 90.9 | 81.4 | 106 | 107 | 111 | 95.7
4 | CC1(C)CCC(c2ccc(Cl)cc2)=C(CN2CCN(c3ccc(C(=O)NS(=O)(=O)c4ccc(N[C@H](CCN5CCOCC5)CSc5ccccc5)c(S(=O)(=O)C(F)(F)F)c4)cc3)CC2)C1 + Cc1ccc(NC(=O)c2cccc(N(C)C)c2)cc1NC(=O)c1ccc(O)cc1 [ZM336372] (first compound 0.4 µM, partner dose 2 µM) | 84.4 | 64.3 | 105 | 77.9 | 78.2 | 90.9 | 57 | 36.1 | 71.5
5 | Cc1ccc(Nc2nccc(N(C)c3ccc4c(C)n(C)nc4c3)n2)cc1S(N)(=O)=O [Pazopanib] + N#Cc1c(O)c2c(-c3ccc(-c4ccccc4O)cc3)csc2[nH]c1=O [A769662] (first compound 0.4 µM, partner dose 2 µM) | 98.5 | 91.4 | 105 | 99.4 | 81 | 104 | 102 | 75.2 | 101
6 | CC1(C)CCC(c2ccc(Cl)cc2)=C(CN2CCN(c3ccc(C(=O)NS(=O)(=O)c4ccc(N[C@H](CCN5CCOCC5)CSc5ccccc5)c(S(=O)(=O)C(F)(F)F)c4)cc3)CC2)C1 + COc1cc2ncnc(Nc3ccc(Oc4ccccc4)cc3)c2cc1OC [SrcI1] (first compound 0.4 µM, partner dose 2 µM) | 63.1 | 28 | 104 | 102 | 107 | 81.3 | 119 | 82.9 | 82.3
7 | CC1(C)CCC(c2ccc(Cl)cc2)=C(CN2CCN(c3ccc(C(=O)NS(=O)(=O)c4ccc(N[C@H](CCN5CCOCC5)CSc5ccccc5)c(S(=O)(=O)C(F)(F)F)c4)cc3)CC2)C1 + O=C1NC(=O)/C(=C/c2ccc(-c3ccc(F)cc3O)o2)S1 [AS252424] (first compound 0.4 µM, partner dose 1 µM) | 54.8 | 55.1 | 108 | 82.7 | 95.2 | 78.5 | 80.1 | 42.9 | 61.6
8 | O=C(/C=C/c1cccnc1)NCCCCC1CCN(C(=O)c2ccccc2)CC1 + COc1cc2c(Oc3ccc4[nH]c(C)cc4c3F)ncnc2cc1OCCCN1CCCC1 [cediranib] (first compound 0.01 µM, partner dose 0.4 µM) | 56.1 | 15.6 | 63.9 | 12 | 43 | 60.9 | 95.9 | 84 | 36.8
9 | CC1(C)CCC(c2ccc(Cl)cc2)=C(CN2CCN(c3ccc(C(=O)NS(=O)(=O)c4ccc(N[C@H](CCN5CCOCC5)CSc5ccccc5)c(S(=O)(=O)C(F)(F)F)c4)cc3)CC2)C1 + Cn1cc(/C=C2\C(=O)Nc3cccnc32)c2ccccc21 [GW441756] (first compound 0.4 µM, partner dose 0.4 µM) | 61.8 | 50.5 | 101 | 92.4 | 91.1 | 79.2 | 82.9 | 68 | 83.8
10 | CC1(C)CCC(c2ccc(Cl)cc2)=C(CN2CCN(c3ccc(C(=O)NS(=O)(=O)c4ccc(N[C@H](CCN5CCOCC5)CSc5ccccc5)c(S(=O)(=O)C(F)(F)F)c4)cc3)CC2)C1 + COc1cc2c(Oc3ccc4[nH]c(C)cc4c3F)ncnc2cc1OCCCN1CCCC1 [cediranib] (first compound 0.4 µM, partner dose 0.4 µM) | 46 | 27.3 | 99.4 | 92.4 | 104 | 71.2 | 84.9 | 39.1 | 71.4
11 | O=C(/C=C/c1cccnc1)NCCCCC1CCN(C(=O)c2ccccc2)CC1 + Cc1ccc(NC(=O)c2cccc(N(C)C)c2)cc1NC(=O)c1ccc(O)cc1 [ZM336372] (first compound 0.01 µM, partner dose 2 µM) | 54.1 | 42.7 | 77.1 | 12.9 | 36 | 69.5 | 74 | 76.9 | 36.4
12 | Cc1ccc(Nc2nccc(N(C)c3ccc4c(C)n(C)nc4c3)n2)cc1S(N)(=O)=O [Pazopanib] + Oc1nc(-c2ccc(C(F)(F)F)cc2)nc2c1CSCC2 [XAV939] (first compound 0.4 µM, partner dose 2 µM) | 87.9 | 134 | 91.6 | 88.4 | 84.7 | 96.3 | 90.8 | 89.2 | 90.2
13 | O=C(/C=C/c1cccnc1)NCCCCC1CCN(C(=O)c2ccccc2)CC1 + C[C@@H]1CCN(C(=O)CC#N)C[C@@H]1N(C)c1ncnc2[nH]ccc12 [CP690550] (first compound 0.01 µM, partner dose 1 µM) | 53.1 | 24.4 | 71.2 | 8.48 | 41.4 | 63.8 | 89 | 52 | 45.6
14 | O=C(/C=C/c1cccnc1)NCCCCC1CCN(C(=O)c2ccccc2)CC1 + O=C(CCCCCCC(=O)Nc1ccccc1)NO [vorinostat] (first compound 0.01 µM, partner dose 0.08 µM) | 63.7 | 38.1 | 91.6 | 17 | 52.7 | 71.4 | 93 | 88.4 | 54.2
15 | Cc1ccc(Nc2nccc(N(C)c3ccc4c(C)n(C)nc4c3)n2)cc1S(N)(=O)=O [Pazopanib] + c1cc(-c2cnn3cc(-c4ccc(OCCN5CCCCC5)cc4)cnc23)ccn1 [Dorsomorphin] (first compound 0.4 µM, partner dose 0.4 µM) | 106 | 90 | 83.5 | 87.8 | 86.4 | 101 | 110 | 111 | 95
16 | Cc1ccc(Nc2nccc(N(C)c3ccc4c(C)n(C)nc4c3)n2)cc1S(N)(=O)=O [Pazopanib] + CN(NC(=O)CC(=O)NN(C)C(=S)c1ccccc1)C(=S)c1ccccc1 [STA4783] (first compound 0.4 µM, partner dose 0.006 µM) | 61.7 | 60.3 | 73.9 | 67.2 | 74.8 | 69.2 | 72.7 | 52.1 | 82.3
17 | CC1(C)CCC(c2ccc(Cl)cc2)=C(CN2CCN(c3ccc(C(=O)NS(=O)(=O)c4ccc(N[C@H](CCN5CCOCC5)CSc5ccccc5)c(S(=O)(=O)C(F)(F)F)c4)cc3)CC2)C1 + CC(C)CCN1c2nc(Nc3cc(F)c(O)c(F)c3)ncc2N(C)C(=O)C1C [BID1870] (first compound 0.4 µM, partner dose 0.2 µM) | 49.4 | 53.6 | 88.1 | 76.3 | 101 | 78 | 99.5 | 80.3 | 68.6
18 | Cc1ccc(Nc2nccc(N(C)c3ccc4c(C)n(C)nc4c3)n2)cc1S(N)(=O)=O [Pazopanib] + CCN(CC)CCCCNc1ncc2cc(-c3cc(OC)cc(OC)c3)c(NC(=O)NC(C)(C)C)nc2n1 [PD173074] (first compound 0.4 µM, partner dose 0.1 µM) | 107 | 111 | 87.2 | 100 | 82.9 | 95.7 | 114 | 85.8 | 99.6
19 | O=C(/C=C/c1cccnc1)NCCCCC1CCN(C(=O)c2ccccc2)CC1 + NCC(=O)Nc1ccc(-n2nc(C(F)(F)F)cc2-c2ccc3c(ccc4ccccc43)c2)cc1 [OSU03012] (first compound 0.01 µM, partner dose 1 µM) | 69.5 | 21.4 | 76.6 | 11.8 | 40.6 | 81.7 |  | 89.9 | 44.1
20 | Cc1ccc(Nc2nccc(N(C)c3ccc4c(C)n(C)nc4c3)n2)cc1S(N)(=O)=O [Pazopanib] + COc1cc2c(Oc3ccc4[nH]c(C)cc4c3F)ncnc2cc1OCCCN1CCCC1 [cediranib] (first compound 0.4 µM, partner dose 0.4 µM) | 93.8 | 116 | 101 | 92.2 | 79 | 104 | 98.5 | 114 | 117
21 | O=C(/C=C/c1cccnc1)NCCCCC1CCN(C(=O)c2ccccc2)CC1 + Oc1nc(-c2ccc(C(F)(F)F)cc2)nc2c1CSCC2 [XAV939] (first compound 0.01 µM, partner dose 2 µM) | 64.4 | 32.8 | 63.7 | 26.6 | 52.4 | 85.6 | 95.8 | 96.7 | 62.7
22 | Cc1ccc(Nc2nccc(N(C)c3ccc4c(C)n(C)nc4c3)n2)cc1S(N)(=O)=O [Pazopanib] + O=C1NC(=O)/C(=C/c2ccc(-c3ccc(F)cc3O)o2)S1 [AS252424] (first compound 0.4 µM, partner dose 1 µM) | 95.8 | 127 | 103 | 90.5 | 77.8 | 90.8 | 73.5 | 102 | 85.2
